Article PMC4336329 (PLoS ONE, 2015)
Hit rate of the full screen: of about 310,000 compounds, about 2,200 (0.71%) showed an effect of 50% or more. Effects have a minus sign here. The list shows a part of the results.

Target: human ether-à-go-go-related gene (hERG) potassium channel (human, UniProt Q12809)
Assay: primary screen, population patch clamp on CHO cells stably expressing hERG

human ether-à-go-go-related gene (hERG) potassium channel, sequence (Q12809 whole entry, looked up): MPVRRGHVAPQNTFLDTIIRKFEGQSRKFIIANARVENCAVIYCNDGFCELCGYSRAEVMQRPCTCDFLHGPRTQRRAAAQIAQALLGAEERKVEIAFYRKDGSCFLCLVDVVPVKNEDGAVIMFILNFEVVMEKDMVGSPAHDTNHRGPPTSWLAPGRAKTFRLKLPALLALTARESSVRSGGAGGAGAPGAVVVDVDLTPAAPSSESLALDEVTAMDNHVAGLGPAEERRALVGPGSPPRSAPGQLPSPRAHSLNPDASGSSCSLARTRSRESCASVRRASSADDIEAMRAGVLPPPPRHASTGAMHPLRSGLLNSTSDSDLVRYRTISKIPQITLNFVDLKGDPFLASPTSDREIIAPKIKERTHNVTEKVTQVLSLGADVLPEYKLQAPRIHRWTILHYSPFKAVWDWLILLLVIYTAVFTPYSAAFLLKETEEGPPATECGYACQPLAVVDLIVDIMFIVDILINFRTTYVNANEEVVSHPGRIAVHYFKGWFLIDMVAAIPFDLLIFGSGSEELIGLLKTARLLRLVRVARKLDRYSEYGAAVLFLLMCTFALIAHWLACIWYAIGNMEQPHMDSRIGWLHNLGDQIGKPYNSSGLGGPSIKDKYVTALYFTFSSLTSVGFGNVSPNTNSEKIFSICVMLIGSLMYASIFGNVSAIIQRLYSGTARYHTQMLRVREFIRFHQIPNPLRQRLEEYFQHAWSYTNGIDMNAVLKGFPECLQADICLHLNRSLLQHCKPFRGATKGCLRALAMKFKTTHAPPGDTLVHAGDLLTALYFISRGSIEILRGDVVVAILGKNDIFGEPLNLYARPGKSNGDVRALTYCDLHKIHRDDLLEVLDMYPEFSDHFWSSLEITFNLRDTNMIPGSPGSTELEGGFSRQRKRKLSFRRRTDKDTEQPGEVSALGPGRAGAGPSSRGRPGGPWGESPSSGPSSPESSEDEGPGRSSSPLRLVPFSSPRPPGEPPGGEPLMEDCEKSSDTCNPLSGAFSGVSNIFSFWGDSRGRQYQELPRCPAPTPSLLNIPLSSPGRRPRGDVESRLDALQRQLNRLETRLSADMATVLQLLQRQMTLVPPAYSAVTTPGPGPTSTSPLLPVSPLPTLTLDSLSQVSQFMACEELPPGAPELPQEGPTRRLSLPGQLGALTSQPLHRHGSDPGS

First: CCOc1ccc(NC(=O)CN(C)S(=O)(=O)c2cnc[nH]2)cc1
Second: C=C(C)CN(CC)C(=O)COc1ccc(S(=O)(=O)Nc2ccc(OC)cc2)cc1
The “hERG current change (%, negative = inhibition) at 1uM” value of the first is higher: 19.6% for the first, 4.88% for the second.

Compared with O=C(NCC(=O)N(c1ccccc1)C(C(=O)NC1CCCC1)c1ccncc1)c1ccco1 (stereo not drawn), CC(C)[C@H](NC(=O)c1ccccc1)C(=O)OCC(=O)NCc1ccc(F)cc1 is higher in “hERG current change (%, negative = inhibition) at 1uM” value: -3.52% for the first, 7.72% for the second.

Going from CCOC(=O)c1nn(-c2ccc(OCC)cc2)c2nc(-c3cccc(OC)c3)c(C#N)c(=O)n12 to COc1ccc(-c2cc3c(=O)n(CC(=O)NCc4cccnc4)ncn3n2)cc1, the “hERG current change (%, negative = inhibition) at 1uM” value falls from 10.8% to -4.91%.

Going from Cl.c1coc(C2=NCCc3ccccc32)c1 to CC(=O)Nc1nc2c(s1)CCc1ccccc1-2, the “hERG current change (%, negative = inhibition) at 1uM” value rises from 7.61% to 18.9%.

First: Cc1ccc2c(c1)N(C(=O)CCC(=O)N1CCc3ccccc3C1)CCO2
Second: CNS(=O)(=O)c1cccc(C(=O)OCC(=O)N2CCc3ccccc3C2)c1
The “hERG current change (%, negative = inhibition) at 1uM” value of the first is higher: 7.35% for the first, 3.36% for the second.

Compared with CC(Oc1ccc(Cl)cc1Cl)c1nc(-c2ccccn2)no1 (stereo not drawn), O=[N+]([O-])c1cc(Cl)ccc1Sc1ccccn1 is higher in “hERG current change (%, negative = inhibition) at 1uM” value: 5.44% for the first, 12.6% for the second.

Compared with CC(=O)Nc1ccc(NC(=O)CCCCCn2nnc3ccccc3c2=O)cc1, CCn1c2ccccc2c2cc(NC(=O)CCCN3C(=O)CCC3=O)ccc21 is higher in “hERG current change (%, negative = inhibition) at 1uM” value: 10.1% for the first, 10.7% for the second.

First: Cc1ccccc1N/C(SCc1ccc(Cl)cc1)=C(/C#N)C(N)=O
Second: Cc1ccc(OCC(=O)Nc2ccccc2F)cc1
The “hERG current change (%, negative = inhibition) at 1uM” value of the first is lower: 9.03% for the first, 9.1% for the second.

COc1ccccc1C(=O)NC(=O)Cn1nc(C)c([N+](=O)[O-])c1C and COc1ccc(NC(=O)CN2C(=O)NC(C)(c3ccc(C)cc3)C2=O)c([N+](=O)[O-])c1 (stereo not drawn) are the same in “hERG current change (%, negative = inhibition) at 1uM” value: 5.57% for the first, 5.57% for the second.

Compared with CCCS(=O)(=O)NCc1cn2c(C)csc2n1, CCCCn1c(C)cc(C)c(S(=O)(=O)c2ccccc2C)c1=O is higher in “hERG current change (%, negative = inhibition) at 1uM” value: 6.87% for the first, 11.8% for the second.

First: CC(=O)n1cc([C@H]2C=C(C(=O)N3CCOCC3)O[C@@H](OCCCCO)C2)c2ccccc21
Second: Cc1noc(C)c1COc1ccc(C(=O)N2CCN(c3ccccc3O)CC2)cc1
The “hERG current change (%, negative = inhibition) at 1uM” value of the first is higher: 18.2% for the first, 15.3% for the second.

First: Cc1cc(C)c2nc(N3CCCN(C(=O)c4ccco4)CC3)c(C#N)cc2c1
Second: Cc1cccc2cc(C#N)c(N3CCN(C)CC3)nc12
The “hERG current change (%, negative = inhibition) at 1uM” value of the first is higher: -6.75% for the first, -9.93% for the second.

First: O=S(=O)(c1cccc(-c2csc(-c3cccnc3)n2)c1)N1CCOCC1
Second: O=[N+]([O-])c1cc(C(F)(F)F)cc([N+](=O)[O-])c1N1CCN(S(=O)(=O)c2ccccc2)CC1
The “hERG current change (%, negative = inhibition) at 1uM” value of the first is higher: 8.46% for the first, 6.1% for the second.

Going from O=C(O)CN(c1ccccc1F)S(=O)(=O)c1ccccc1 to CN(c1ccccc1)S(=O)(=O)c1cccc(NC(=O)COc2ccccc2)c1, the “hERG current change (%, negative = inhibition) at 1uM” value falls from 19.4% to 9.45%.

First: Cc1ccc(Nc2nc(-c3c(C)nc4ncccn34)cs2)cc1
Second: Cc1csc(NC(=O)CSc2ccc3nnc(-c4ccncc4)n3n2)n1
The “hERG current change (%, negative = inhibition) at 1uM” value of the first is higher: 9.73% for the first, 6.6% for the second.

Going from Cc1ccc(S(=O)(=O)N2CC3CCCC2C3)cc1 (stereo not drawn) to COc1ccc(CCNC(=O)C2CCN(S(=O)(=O)c3ccc(C)cc3)CC2)cc1, the “hERG current change (%, negative = inhibition) at 1uM” value falls from 11% to 5.93%.

First: N#C/C(=C(/O)CN1CCN(c2ccccc2F)CC1)c1nc(-c2ccc(Cl)cc2)cs1
Second: Cc1ccc(CN2CCN(/N=C/c3cccs3)CC2)cc1
The “hERG current change (%, negative = inhibition) at 1uM” value of the first is lower: 2.25% for the first, 4.22% for the second.

Compared with COCCNC(=O)CN(C(=O)CCC(=O)Nc1ccccn1)c1ccc(F)c(Cl)c1, Cc1ccc2cc(NC(=O)CC(CC(=O)O)c3ccccc3)ccc2n1 (stereo not drawn) is lower in “hERG current change (%, negative = inhibition) at 1uM” value: 6.65% for the first, 5.28% for the second.

First: CCCn1c(Cc2ccccc2)nnc1SC(C)C(=O)NC1CC1 (stereo not drawn)
Second: CC(C)CC(=O)c1c[nH]c(C(=O)NCc2ccccc2)c1
The “hERG current change (%, negative = inhibition) at 1uM” value of the first is higher: 9.83% for the first, 7.97% for the second.

First: CC1CCN(C(=O)CN(c2cccc(F)c2)S(C)(=O)=O)CC1
Second: O=C(C1CCCC1)N1CCN=C1SCc1cccc([N+](=O)[O-])c1
The “hERG current change (%, negative = inhibition) at 1uM” value of the first is lower: -1.32% for the first, 2.37% for the second.

First: COc1cc2c(-c3ccc4cc[nH]c4c3)c(-c3ccc(C#N)cc3)oc(=O)c2cc1OC
Second: COc1cc2c(cc1OC)CN(C(=O)NS(=O)(=O)c1ccc(C)cc1)CC2
The “hERG current change (%, negative = inhibition) at 1uM” value of the first is higher: 13.1% for the first, -2.15% for the second.

Going from O=C(Nc1nnc(SCC(=O)N2CCCc3ccccc32)s1)c1cccc2ccccc12 to O=C(CSc1nnc(-c2cccs2)n1-c1ccccc1)c1ccc2c(c1)OCCO2, the “hERG current change (%, negative = inhibition) at 1uM” value falls from 13.9% to 8.47%.

First: O=C(COC(=O)C1CC1)NCCNC(=O)COC(=O)C1CC1
Second: CCCCCNC(=O)N[C@H](C(=O)O)C(C)C
The “hERG current change (%, negative = inhibition) at 1uM” value of the first is higher: 15.1% for the first, 1.83% for the second.

First: CC(C)[C@H](NC(=O)[C@H](Cc1ccccc1)n1c(=O)[nH]c2ccccc2c1=O)C(=O)N1CCC[C@H]1C(=O)O
Second: CC(C)CN(C(=O)CSc1nc2ccccc2o1)c1c(N)n(Cc2ccccc2)c(=O)[nH]c1=O
The “hERG current change (%, negative = inhibition) at 1uM” value of the first is higher: 13.8% for the first, 8.31% for the second.

Compared with Cc1cc(C)c(/C([O-])=C(/C(=S)Nc2ccc(SC(F)F)cc2)[n+]2ccccc2)cc1C, [O-]/C(=C(\C(=S)NCc1ccc2c(c1)OCO2)[n+]1ccccc1)c1ccc(Cl)s1 is higher in “hERG current change (%, negative = inhibition) at 1uM” value: 15.8% for the first, 17.3% for the second.

First: CN(C(=O)COc1ncnc2c1cnn2-c1ccccc1)C1CCCCC1
Second: NNC(=O)c1cnn(-c2ccccc2)c1-n1cccc1
The “hERG current change (%, negative = inhibition) at 1uM” value of the first is higher: 8.86% for the first, 8.5% for the second.

First: Cc1ccc2c(c1)c1c(n2C)C(=O)CCC1
Second: CCOC(=O)c1c(C)n(C)c2ccc(O)c(CN3CCN(C)CC3)c12
The “hERG current change (%, negative = inhibition) at 1uM” value of the first is higher: 9.72% for the first, 4.88% for the second.

Compared with O=c1c(Cl)c(NCc2ccco2)cnn1C12CC3CC(CC(C3)C1)C2, CC(NCc1ccncc1)C12CC3CC(CC(C3)C1)C2.Cl (stereo not drawn) is higher in “hERG current change (%, negative = inhibition) at 1uM” value: 4.54% for the first, 12.6% for the second.

First: CCOC(=O)N1CCN(C(=O)c2ccc(Cl)nc2)CC1
Second: Cc1cc(C)c(C)c(S(=O)(=O)N2CCN(C(=O)CCc3nc4ccccc4c(=O)[nH]3)CC2)c1C
The “hERG current change (%, negative = inhibition) at 1uM” value of the first is lower: -1.96% for the first, 10.8% for the second.

First: CN(Cc1ccccc1)C(=O)CSc1nnc(-c2ccco2)n1-c1ccccc1
Second: O=C1c2ccccc2C(O)(c2ccccc2)N1CCc1ccccc1 (stereo not drawn)
The “hERG current change (%, negative = inhibition) at 1uM” value of the first is lower: -49% for the first, 8.98% for the second.

First: CC(NC(=O)/C(=C\c1ccco1)NC(=O)c1ccccc1Br)C(=O)O (stereo not drawn)
Second: CC(=O)N(C)c1ccc(NS(=O)(=O)Cc2ccccc2)cc1
The “hERG current change (%, negative = inhibition) at 1uM” value of the first is higher: 13.4% for the first, 3.25% for the second.

Compared with CC(C)[C@@H]1COC(c2cccc(C3=N[C@H](C(C)C)CO3)n2)=N1, CCOc1nc(NCCO)nc(Nc2ccccc2F)n1 is higher in “hERG current change (%, negative = inhibition) at 1uM” value: 11.1% for the first, 19.2% for the second.

Going from Cn1c(-c2cccc([N+](=O)[O-])c2)[n+](C)c2ccccc21.[Cl-] to COc1ccccc1P(=O)(Cc1ccccc1[N+](=O)[O-])c1ccccc1 (stereo not drawn), the “hERG current change (%, negative = inhibition) at 1uM” value falls from 12.7% to 8.3%.

Compared with O=C(NCCCN1CCOCC1)c1ccc(Cl)cc1[N+](=O)[O-], CN1CCC(=NNC(=O)c2ccco2)CC1 is lower in “hERG current change (%, negative = inhibition) at 1uM” value: 10.7% for the first, -2.11% for the second.

First: Cc1ccccc1NC(=S)N(CCN1CCCCC1)Cc1ccco1
Second: Cc1cccc(OCC(O)CN2CCN(c3ccccn3)CC2)c1C.Cl (stereo not drawn)
The “hERG current change (%, negative = inhibition) at 1uM” value of the first is lower: 2.1% for the first, 3.38% for the second.

First: COC(=O)c1c(NC(=O)C2CCCCC2)sc2c1CCN(C(C)C)C2.Cl
Second: O=C(Nc1nnc(C2CC2)o1)c1ccc(S(=O)(=O)N2CCCCC2)cc1
The “hERG current change (%, negative = inhibition) at 1uM” value of the first is lower: 11.3% for the first, 14.2% for the second.

Going from CCCCn1c(SCc2nc3ccccc3s2)nc2cc(S(N)(=O)=O)ccc21 to CC(C)CCN1C(=O)c2ccc(C(=O)Nc3cccc(S(N)(=O)=O)c3)cc2C1=O, the “hERG current change (%, negative = inhibition) at 1uM” value rises from -8.76% to 9.51%.

Going from O=C(Nc1ncc(Cc2cccc(Cl)c2Cl)s1)c1ccc([N+](=O)[O-])cc1 to C/C(=N\NC(=O)c1ccc(C)cc1)C1C(=O)c2ccccc2C1=O, the “hERG current change (%, negative = inhibition) at 1uM” value rises from -6.49% to 12.1%.

Compared with COc1ccc(/C=C/C(=O)N(C)C2(C)CCS(=O)(=O)C2)cc1 (stereo not drawn), COc1ccc(C(=O)Oc2cccnc2)cc1 is higher in “hERG current change (%, negative = inhibition) at 1uM” value: 6.09% for the first, 6.22% for the second.

Compared with COc1ccc(-c2nc(NC(=O)CSc3nnc4ccccn34)ns2)cc1, CC(=O)NC(=S)Nc1ccc(-c2nc3ccc(C)cc3s2)cc1 is higher in “hERG current change (%, negative = inhibition) at 1uM” value: 8.6% for the first, 11.9% for the second.

First: CCOc1ncccc1C(=O)OCC(=O)Nc1c(C)cc(C)cc1C
Second: NS(=O)(=O)c1cccc(NC(=O)COC(=O)/C(=C/c2cccs2)c2cccs2)c1
The “hERG current change (%, negative = inhibition) at 1uM” value of the first is higher: 8.45% for the first, 5.57% for the second.

Going from Cc1ccc(NC(=O)CC2S/C(=N/N=C3/NC(=O)CS3)NC2=O)cc1 (stereo not drawn) to CN(C)c1ccc(CNC(=O)CCS(=O)(=O)c2ccc3c(c2)oc(=O)n3C)cc1, the “hERG current change (%, negative = inhibition) at 1uM” value rises from 14.6% to 15.5%.

First: O=c1[nH]c(/C=C/c2ccccc2)c([N+](=O)[O-])c(=O)[nH]1
Second: CCCNC(=O)NC1CCCc2ccccc21 (stereo not drawn)
The “hERG current change (%, negative = inhibition) at 1uM” value of the first is lower: 2.27% for the first, 6.62% for the second.

COc1cccc(N2CCN(c3ncnc4c3[nH]c3ccc(F)cc34)CC2C)c1 (stereo not drawn) was tested, and the “hERG current change (%, negative = inhibition) at 1uM” value was 2.12%.
